Common to all, as to details: both partners purified
The target of test [1] is T1, human Hsp70 (human, UniProt P0DMV8-1).
T1 construct: human Hsp70, NP_005336.3 (pQE30/hHsp70); also called hHsp70; Hhsp70; source: E. coli BL21, purified (Ni-NTA)
Description: SPR; Hsp70 immobilised (100 µg/mL) on CMD 3D 500L chip, GrB analyte 0-2000 nM, 25 °C, PBS-Tween 20 with 20 mM EDTA pH 7.4, 25 μL/min, 1:1 Langmuir global fit; with ADP.

Test [2] has as its target T1, human Hsp70. Briefly: SPR; Hsp70 immobilised (100 µg/mL) on CMD 3D 500L chip, GrB analyte 0-2000 nM, 25 °C, PBS-Tween 20 with 20 mM EDTA pH 7.4, 25 μL/min, 1:1 Langmuir global fit; with ATP.
Test [3] concerns the target T1, human Hsp70. Description: SPR; Hsp70 immobilised (100 µg/mL) on CMD 3D 500L chip, GrB analyte 0-2000 nM, 25 °C, PBS-Tween 20 with 20 mM EDTA pH 7.4, 25 μL/min, 1:1 Langmuir global fit; no nucleotide.

The source of these data is paper PMC10167072, “Human granzyme B binds Plasmodium falciparum Hsp70-x and mediates antiplasmodial activity in vitro” (Cell Stress & Chaperones, 2023).

T1 sequence (P0DMV8 whole entry): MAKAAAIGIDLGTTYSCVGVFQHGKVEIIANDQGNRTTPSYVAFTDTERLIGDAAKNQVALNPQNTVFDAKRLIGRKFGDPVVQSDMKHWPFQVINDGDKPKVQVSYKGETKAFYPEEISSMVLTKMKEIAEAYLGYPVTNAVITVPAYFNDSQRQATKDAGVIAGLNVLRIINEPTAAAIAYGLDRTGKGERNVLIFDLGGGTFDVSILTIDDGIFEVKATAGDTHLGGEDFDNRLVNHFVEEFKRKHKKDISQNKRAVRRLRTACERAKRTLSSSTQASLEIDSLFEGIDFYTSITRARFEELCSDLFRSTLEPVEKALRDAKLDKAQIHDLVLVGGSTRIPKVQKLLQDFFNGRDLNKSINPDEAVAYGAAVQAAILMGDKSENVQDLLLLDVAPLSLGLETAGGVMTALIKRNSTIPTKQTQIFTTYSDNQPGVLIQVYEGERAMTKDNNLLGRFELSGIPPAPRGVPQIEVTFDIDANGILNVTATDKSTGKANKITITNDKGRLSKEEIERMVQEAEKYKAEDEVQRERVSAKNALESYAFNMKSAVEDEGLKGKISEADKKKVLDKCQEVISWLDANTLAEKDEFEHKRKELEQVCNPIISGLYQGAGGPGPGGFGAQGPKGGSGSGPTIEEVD

B1: human granzyme B (enzyme)
chain: not shown
notes: granzyme B, human, serine protease; Bought protein; also called GrB; human GrB; source: bought: Hölzel Diagnostics, Cologne, Germany
Regarding B1, the Kd in the test with human Hsp70 [1] amounted to 5610 nM; with human Hsp70 [2], 200 nM; with human Hsp70 [3] it was 1530 nM. The koff was 0.00121 s⁻¹ with human Hsp70 [1], 0.000898 s⁻¹ in the test with human Hsp70 [2] and 0.000989 s⁻¹ in the test with human Hsp70 [3]. The kon with human Hsp70 [1] worked out at 1620 M⁻¹ s⁻¹; with human Hsp70 [2], 3950 M⁻¹ s⁻¹; in the test with human Hsp70 [3], 2370 M⁻¹ s⁻¹.
